Results on three molecules are retold here after article PMC11832431 (MedComm, 2025).

Protein sequences, listed by entry. Tags and fused reporters are not part of them.
UniProt P11802: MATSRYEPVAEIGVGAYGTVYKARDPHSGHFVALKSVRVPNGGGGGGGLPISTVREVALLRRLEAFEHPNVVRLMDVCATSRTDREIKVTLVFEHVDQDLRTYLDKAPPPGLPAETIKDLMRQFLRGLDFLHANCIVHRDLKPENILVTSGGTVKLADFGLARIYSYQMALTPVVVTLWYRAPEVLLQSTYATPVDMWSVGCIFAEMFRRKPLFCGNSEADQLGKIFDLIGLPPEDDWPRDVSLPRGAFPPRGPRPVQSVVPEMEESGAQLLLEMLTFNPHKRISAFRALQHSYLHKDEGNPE
UniProt Q00534: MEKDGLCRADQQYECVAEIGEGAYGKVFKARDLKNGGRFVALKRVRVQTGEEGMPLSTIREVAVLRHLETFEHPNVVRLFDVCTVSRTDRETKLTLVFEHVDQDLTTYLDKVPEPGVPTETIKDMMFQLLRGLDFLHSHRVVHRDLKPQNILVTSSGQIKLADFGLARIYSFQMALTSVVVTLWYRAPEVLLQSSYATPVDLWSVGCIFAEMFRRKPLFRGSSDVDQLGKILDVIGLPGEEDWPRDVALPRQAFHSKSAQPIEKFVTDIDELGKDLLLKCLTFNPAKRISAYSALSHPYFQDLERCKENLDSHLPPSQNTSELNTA

These are yes or no findings as the source states them, for the method shown. For some assays here: Binding seen in cells or lysates may run through a third protein. Some binding calls cover weakened binding; strength is not graded here. For some assays here: Tags and fused reporters may be left off the sequences shown.

Assay [1] deals with T1, GST-DUB3 (deubiquitinating enzyme 3), wild type (UniProt Q6R6M4).
T1 sequence: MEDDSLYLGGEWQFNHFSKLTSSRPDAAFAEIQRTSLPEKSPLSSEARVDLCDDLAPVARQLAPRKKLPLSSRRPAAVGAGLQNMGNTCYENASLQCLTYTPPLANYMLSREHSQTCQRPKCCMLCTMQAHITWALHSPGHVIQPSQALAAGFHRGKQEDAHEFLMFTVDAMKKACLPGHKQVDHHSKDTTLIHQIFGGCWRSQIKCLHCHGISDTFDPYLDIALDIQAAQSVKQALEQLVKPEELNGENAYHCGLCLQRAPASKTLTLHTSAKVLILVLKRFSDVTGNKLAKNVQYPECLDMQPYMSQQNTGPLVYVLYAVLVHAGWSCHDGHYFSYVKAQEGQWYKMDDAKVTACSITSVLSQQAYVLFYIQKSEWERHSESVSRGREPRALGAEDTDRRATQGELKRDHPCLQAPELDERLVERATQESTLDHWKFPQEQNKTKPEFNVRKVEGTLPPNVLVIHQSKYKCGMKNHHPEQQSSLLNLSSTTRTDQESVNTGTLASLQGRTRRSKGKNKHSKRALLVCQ
The experiment in a line: pull-down; purified recombinant GST or GST fusion protein incubated in vitro (cell-free) with purified recombinant His-tagged protein; blot and Coomassie blue staining; both purified.

Assay [2] deals with GST-CDK4 (cyclin-dependent kinase 4) (UniProt P11802). The description is as above.
Assay [3] concerns the target GST-CDK6 (cyclin-dependent kinase 6) (UniProt Q00534). Described as above.
The target in assay [4] is T2, deubiquitinating enzyme 3 (DUB3), endogenous (human (endogenous in HCT 116 and LoVo)) (UniProt Q6R6M4).
T2 sequence: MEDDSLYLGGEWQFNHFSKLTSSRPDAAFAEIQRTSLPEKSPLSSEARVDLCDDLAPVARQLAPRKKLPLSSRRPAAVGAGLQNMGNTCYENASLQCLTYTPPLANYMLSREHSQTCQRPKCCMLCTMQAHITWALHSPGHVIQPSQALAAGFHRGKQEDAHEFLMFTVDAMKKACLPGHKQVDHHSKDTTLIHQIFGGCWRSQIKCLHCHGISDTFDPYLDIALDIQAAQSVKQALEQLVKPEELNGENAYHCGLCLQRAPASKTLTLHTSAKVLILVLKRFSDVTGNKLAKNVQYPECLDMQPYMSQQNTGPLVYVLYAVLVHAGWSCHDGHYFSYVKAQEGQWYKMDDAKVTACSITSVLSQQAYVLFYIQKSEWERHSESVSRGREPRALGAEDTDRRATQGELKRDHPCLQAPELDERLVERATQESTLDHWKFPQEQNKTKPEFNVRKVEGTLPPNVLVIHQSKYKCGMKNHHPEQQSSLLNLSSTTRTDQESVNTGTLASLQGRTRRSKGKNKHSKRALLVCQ
The experiment in a line: co-IP; endogenous proteins; HCT 116 and LoVo cell lysates immunoprecipitated with IgG, anti-YAP1 or anti-DUB3 antibodies; western blotting. On the technique in general: A western blot detects proteins with antibodies after separation by electrophoresis.

In assay [5] the target is Yes-associated protein 1 (YAP1), endogenous (human (endogenous in HCT 116 and LoVo)) (UniProt P46937). The description is as above.

For “His-YAP1 (Yes-associated protein 1) (from UniProt P46937 1-504)”, the values for the binding result in assay [1], in assay [2] and in assay [3] were “binds”, “no binding” and “no binding”, respectively.
Consider “cyclin-dependent kinase 6 (CDK6), endogenous (from UniProt Q00534 1-326) (enzyme)”, for which, in assay [4], the binding entry is “binds”.

B1: deubiquitinating enzyme 3 (DUB3), endogenous (enzyme, UniProt Q6R6M4 1-530)
chain: MEDDSLYLGGEWQFNHFSKLTSSRPDAAFAEIQRTSLPEKSPLSSEARVDLCDDLAPVARQLAPRKKLPLSSRRPAAVGAGLQNMGNTCYENASLQCLTYTPPLANYMLSREHSQTCQRPKCCMLCTMQAHITWALHSPGHVIQPSQALAAGFHRGKQEDAHEFLMFTVDAMKKACLPGHKQVDHHSKDTTLIHQIFGGCWRSQIKCLHCHGISDTFDPYLDIALDIQAAQSVKQALEQLVKPEELNGENAYHCGLCLQRAPASKTLTLHTSAKVLILVLKRFSDVTGNKLAKNVQYPECLDMQPYMSQQNTGPLVYVLYAVLVHAGWSCHDGHYFSYVKAQEGQWYKMDDAKVTACSITSVLSQQAYVLFYIQKSEWERHSESVSRGREPRALGAEDTDRRATQGELKRDHPCLQAPELDERLVERATQESTLDHWKFPQEQNKTKPEFNVRKVEGTLPPNVLVIHQSKYKCGMKNHHPEQQSSLLNLSSTTRTDQESVNTGTLASLQGRTRRSKGKNKHSKRALLVCQ
For the molecule B1, in assay [5], the binding entry is reported as “binds”.
